Reference: the BET-seq Pho4 binding data (Le et al. 2018)
The list shows a part of the results. These are noisy estimates, calculated here from bound and input reads.

These sequences were tested against T1, Pho4 (S. cerevisiae) (UniProt P07270) (assay: relative binding free energy (BET-seq); higher = weaker binding). Conditions: reference: library average.
T1 sequence: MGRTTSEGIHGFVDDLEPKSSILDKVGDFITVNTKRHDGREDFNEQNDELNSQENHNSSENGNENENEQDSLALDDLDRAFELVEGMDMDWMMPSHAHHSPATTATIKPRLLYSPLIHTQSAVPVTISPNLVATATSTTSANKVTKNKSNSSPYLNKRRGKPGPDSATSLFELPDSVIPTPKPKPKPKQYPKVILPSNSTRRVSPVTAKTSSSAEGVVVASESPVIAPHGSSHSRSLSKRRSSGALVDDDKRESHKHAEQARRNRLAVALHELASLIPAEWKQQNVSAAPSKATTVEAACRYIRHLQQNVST

Sequence | relative binding free energy [kcal/mol]
GTGTACACGTGTACGT | 0.15
TTATACACGTGGTGTG | 0.01
TATTCCACGTGAGTTT | 0.2
TAGCTCACGTGGGTTA | 0.15
ATTTCCACGTGATTTG | 0.27
TATTTCACGTGGAGCG | 0.34
TGTAGCACGTGGTATA | -0.09
TGTTACACGTGTAGTT | 0.1
TATTACACGTGGAGGA | 0
CCATGCACGTGTGTGG | -0.01
TCTTACACGTGTTAGA | 0.19
TAGGTCACGTGCGGGC | 0.02
ATTTTCACGTGGAGTA | 0.23
GAATCCACGTGGGTGT | -0.03
AGGTACACGTGTTATG | 0.04
AGGCGCACGTGGGGTA | -0.33
GTAGTCACGTGAATAA | 0.42
GGCGTCACGTGGCGGA | 0.2
GGGTCCACGTGTGGGA | 0.08
GTGCCCACGTGTGGGG | -0.11
TTATGCACGTGTATGT | 0
GGATGCACGTGTGGTT | 0.12
GGTATCACGTGGAGCG | 0.13

Sequence | relative binding free energy [kcal/mol]
CTTAGCACGTGGTGTG | -0.14
TATTTCACGTGATTAG | 0.27
GAGGTCACGTGAGCGG | 0.26
TGTGGCACGTGAGTCT | 0.2
ATACGCACGTGGGTTG | -0.15
ATAGTCACGTGGGGTG | -0.1
AACGTCACGTGGGTTG | 0.03
GGCTACACGTGGGGAT | -0.07
TTCATCACGTGGGAGG | 0.03
GCTTTCACGTGAGGGG | 0.3
GGTGCCACGTGCAGGG | -0.22
GGTATCACGTGTAGGA | 0.19
CTATGCACGTGGTCGT | -0.12
TGTTACACGTGGCAAT | 0.06
TTTTGCACGTGCATAT | -0.09
GGAGCCACGTGTGGAG | 0
CTGTACACGTGAAGGG | 0.32
ACGGTCACGTGCGGGT | 0.03
GAGGGCACGTGGTAGA | -0.11
GTAGTCACGTGGTAAA | 0.07
AGCAGCACGTGGTGTG | -0.21
TCTTACACGTGGGGGC | 0.08
ATTGTCACGTGATTGA | 0.2

Sequence | relative binding free energy [kcal/mol]
TTAAACACGTGATAGT | 0.09
GTGAGCACGTGTAGTA | 0.01
TTTGTCACGTGTATGG | 0.22
TAATGCACGTGCGGAT | 0.03
TGTCGCACGTGTTTCA | -0.03
GTGGCCACGTGGCAGT | -0.1
TTCTGCACGTGATGCG | 0.14
GGGTGCACGTGACGTG | 0.1
TGTAACACGTGGTATT | -0.01
GTTGACACGTGAAGAG | 0.33
ACGGACACGTGCGGGG | 0.06
CTTTTCACGTGTCGTG | 0.1
TCAGTCACGTGGCTGT | 0.07
GTGGCCACGTGGAATG | 0.13
TCATACACGTGTGATA | 0.17
TGTACCACGTGATGGG | -0.07
ATAGGCACGTGAAGGA | 0.12
TGGTACACGTGGTTTA | 0.08
TGTTGCACGTGAGTGT | 0.2
GGGTGCACGTGGCAGC | -0.09
GTATGCACGTGATAGA | 0.02
ATGTGCACGTGGAATG | -0.01
GTATACACGTGCTAGG | 0.02

Sequence | relative binding free energy [kcal/mol]
ACGGTCACGTGAGGTT | 0.29
AATTTCACGTGAGAGG | 0.47
GTCTTCACGTGGAAGG | 0.39
GGTGACACGTGAGTAG | 0.22
AATTACACGTGCGGTT | 0.05
TCGGACACGTGTGCGT | 0.02
AGAGGCACGTGACGTT | -0.06
GTCGGCACGTGGGGAT | -0.14
TTATGCACGTGGAGGT | 0.09
AATCGCACGTGTTGTT | -0.21
TTAATCACGTGATAAG | 0.31
AAGGTCACGTGGCCGT | 0.02
AAGCGCACGTGTAGTG | 0
GGATGCACGTGGCGTT | 0.03
TCTTTCACGTGGAGTT | 0.24
CGTTTCACGTGGATGG | 0.18
GTTGGCACGTGAATCA | 0.14
GTTTTCACGTGGAAAT | 0.45
TAGTTCACGTGGACTG | 0.25
TTCCTCACGTGTGGAG | 0.35
ATGTTCACGTGTGCTG | 0.25
AACATCACGTGTTTTT | 0.21
ATTATCACGTGCGAGG | 0.2

Sequence | relative binding free energy [kcal/mol]
TGGCACACGTGGTGTG | -0.07
GGGCACACGTGTGAGT | 0.19
ATTAGCACGTGGGAGG | -0.16
GGCTACACGTGTAATG | 0.27
GGGGTCACGTGTGACA | 0.11
CGTTGCACGTGGCTGG | -0.1
TAAATCACGTGATATT | 0.2
GGGCACACGTGTTTTG | 0.19
GGAGTCACGTGCGCGG | 0
ATAGGCACGTGCAGGT | -0.22
GTTGACACGTGAAGCT | 0.25
TGGTTCACGTGGGTGT | 0.22
GCCTACACGTGGGTGG | 0.09
TGTTTCACGTGACAAT | 0.25
CACGTCACGTGTAGGT | 0.13
TTTGGCACGTGGGCTC | -0.25
TATACCACGTGGGGGG | -0.41
GGATTCACGTGGAGCG | 0.4
GTTGTCACGTGGTCTA | 0.11
CAGTGCACGTGAGGGT | 0.19
GGTCTCACGTGATGGT | 0.37
CAATGCACGTGGGTGT | -0.05
GTTATCACGTGTATGG | 0.12
